Source: the supplement of paper PMC9151546
Most values come without repeats; read them as rough.

How the values were obtained:
CHO-K1 [1] = experiment: micronucleus frequency (% of nucleated events); higher = more micronuclei (genotoxic)
CHO-K1 [2] = experiment: hypodiploid nuclei frequency (% of nucleated events); higher = more hypodiploid events (aneugenic)
Procedure: (§1)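 Flow-cytometric in vitro micronucleus assay (Litron MicroFlow) in CHO-K1 cells in 96-well plates, 19 concentrations (4.5-200 µM, n=1 per concentration). Without S9, cells were exposed for 24 h and sampled at 48 h. With Aroclor 1254-induced rat liver S9, cells were exposed for 3-4 h and sampled at 27-28 h. Read-outs are %MN and %hypodiploid nuclei relative to nucleated events, and relative survival as the nuclei-to-bead ratio versus the 1% DMSO vehicle control (x100).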

CHO-K1 [3] = experiment: relative survival (nuclei to bead ratio vs DMSO control) (% of vehicle control); higher = more surviving cells
Procedure: as §1
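For hypodiploid nuclei frequency (% of nucleated events) in this document: hypodiploid nuclei gated on a flow cytometer with 488 nm excitation after SYTOX Green staining, cultures at 37 °C, positive controls vinblastine without S9 and cyclophosphamide with S9.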
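For micronucleus frequency (% of nucleated events) in this document: cells lysed with nuclei stained by SYTOX Green, then micronucleus-gated events counted against nucleated events by flow cytometry with 488 nm excitation.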
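For relative survival (nuclei to bead ratio vs DMSO control) in this document: Lysed-cell nuclei stained with SYTOX Green and counted against counting beads by flow cytometry at 488 nm excitation, with vinblastine (no S9) and cyclophosphamide (plus S9) as positive controls.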

O=C1CN(/N=C/c2ccc([N+](=O)[O-])o2)C(=O)N1 [Nitrofurantoin]
Conditions | hypodiploid nuclei frequency, CHO-K1 [2] [%] | micronucleus frequency, CHO-K1 [1] [%] | relative survival, CHO-K1 [3]
concentration: 4.5 (µM), S9 metabolic activation: with S9, exposure time: 3-4 hours | 0.18 | 1.08 | 91.3
concentration: 4.5 (µM), S9 metabolic activation: without S9, exposure time: 24 hours | 0.4 | 1.48 | 127
concentration: 5.63 (µM), S9 metabolic activation: with S9, exposure time: 3-4 hours | 0.26 | 1.52 | 93.4
concentration: 5.63 (µM), S9 metabolic activation: without S9, exposure time: 24 hours | 0.32 | 1.1 | 147
concentration: 7.04 (µM), S9 metabolic activation: with S9, exposure time: 3-4 hours | 0.22 | 1.02 | 88.5
concentration: 7.04 (µM), S9 metabolic activation: without S9, exposure time: 24 hours | 0.46 | 1.7 | 96.7
concentration: 8.8 (µM), S9 metabolic activation: with S9, exposure time: 3-4 hours | 0.18 | 1.44 | 112
concentration: 8.8 (µM), S9 metabolic activation: without S9, exposure time: 24 hours | 0.52 | 1.4 | 120
concentration: 11 (µM), S9 metabolic activation: with S9, exposure time: 3-4 hours | 0.26 | 1.04 | 110
concentration: 11 (µM), S9 metabolic activation: without S9, exposure time: 24 hours | 0.64 | 1.22 | 98.2
concentration: 13.7 (µM), S9 metabolic activation: with S9, exposure time: 3-4 hours | 0.36 | 1.36 | 124
concentration: 13.7 (µM), S9 metabolic activation: without S9, exposure time: 24 hours | 0.56 | 1.08 | 112
concentration: 17.2 (µM), S9 metabolic activation: with S9, exposure time: 3-4 hours | 0.36 | 1.74 | 111
concentration: 17.2 (µM), S9 metabolic activation: without S9, exposure time: 24 hours | 0.74 | 1.4 | 112
concentration: 21.5 (µM), S9 metabolic activation: with S9, exposure time: 3-4 hours | 0.16 | 1.22 | 102
concentration: 21.5 (µM), S9 metabolic activation: without S9, exposure time: 24 hours | 0.5 | 1.66 | 116
concentration: 26.8 (µM), S9 metabolic activation: with S9, exposure time: 3-4 hours | 0.2 | 1.28 | 97.1
concentration: 26.8 (µM), S9 metabolic activation: without S9, exposure time: 24 hours | 0.7 | 1.9 | 68.5
concentration: 33.6 (µM), S9 metabolic activation: with S9, exposure time: 3-4 hours | 0.2 | 1.16 | 94.8
concentration: 33.6 (µM), S9 metabolic activation: without S9, exposure time: 24 hours | 0.72 | 1.72 | 91.4
concentration: 41.9 (µM), S9 metabolic activation: with S9, exposure time: 3-4 hours | 0.4 | 1.1 | 93.7
concentration: 41.9 (µM), S9 metabolic activation: without S9, exposure time: 24 hours | 0.58 | 1.54 | 93.1
concentration: 52.4 (µM), S9 metabolic activation: with S9, exposure time: 3-4 hours | 0.2 | 0.94 | 81.9
concentration: 52.4 (µM), S9 metabolic activation: without S9, exposure time: 24 hours | 0.6 | 1.66 | 96.7
concentration: 65.5 (µM), S9 metabolic activation: with S9, exposure time: 3-4 hours | 0.26 | 1.04 | 91.8
concentration: 65.5 (µM), S9 metabolic activation: without S9, exposure time: 24 hours | 0.7 | 1.64 | 78.7
concentration: 81.9 (µM), S9 metabolic activation: with S9, exposure time: 3-4 hours | 0.24 | 1.54 | 88.2
concentration: 81.9 (µM), S9 metabolic activation: without S9, exposure time: 24 hours | 0.62 | 2.36 | 108
concentration: 102 (µM), S9 metabolic activation: with S9, exposure time: 3-4 hours | 0.46 | 1.86 | 95.1
concentration: 102 (µM), S9 metabolic activation: without S9, exposure time: 24 hours | 0.96 | 2.68 | 60.5
concentration: 128 (µM), S9 metabolic activation: with S9, exposure time: 3-4 hours | 0.38 | 1.64 | 104
concentration: 128 (µM), S9 metabolic activation: without S9, exposure time: 24 hours | 1.2 | 3.08 | 55.8
concentration: 160 (µM), S9 metabolic activation: with S9, exposure time: 3-4 hours | 0.28 | 1.24 | 87.3
concentration: 160 (µM), S9 metabolic activation: without S9, exposure time: 24 hours | 1.08 | 3.66 | 52.2
concentration: 200 (µM), S9 metabolic activation: with S9, exposure time: 3-4 hours | 0.22 | 1.22 | 80.7
concentration: 200 (µM), S9 metabolic activation: without S9, exposure time: 24 hours | 0.98 | 3.2 | 48.8

NC(=O)N/N=C/c1ccc([N+](=O)[O-])o1 [Nitrofurazone]
Conditions | hypodiploid nuclei frequency, CHO-K1 [2] [%] | micronucleus frequency, CHO-K1 [1] [%] | relative survival, CHO-K1 [3]
concentration: 4.5 (µM), S9 metabolic activation: with S9, exposure time: 3-4 hours | 0.16 | 1.32 | 173
concentration: 4.5 (µM), S9 metabolic activation: without S9, exposure time: 24 hours | 0.56 | 2.02 | 128
concentration: 5.63 (µM), S9 metabolic activation: with S9, exposure time: 3-4 hours | 0.3 | 1.6 | 165
concentration: 5.63 (µM), S9 metabolic activation: without S9, exposure time: 24 hours | 0.66 | 1.36 | 134
concentration: 7.04 (µM), S9 metabolic activation: with S9, exposure time: 3-4 hours | 0.32 | 1.7 | 166
concentration: 7.04 (µM), S9 metabolic activation: without S9, exposure time: 24 hours | 0.72 | 1.68 | 128
concentration: 8.8 (µM), S9 metabolic activation: with S9, exposure time: 3-4 hours | 0.24 | 1.5 | 187
concentration: 8.8 (µM), S9 metabolic activation: without S9, exposure time: 24 hours | 0.76 | 1.62 | 103
concentration: 11 (µM), S9 metabolic activation: with S9, exposure time: 3-4 hours | 0.34 | 1.48 | 158
concentration: 11 (µM), S9 metabolic activation: without S9, exposure time: 24 hours | 0.48 | 1.6 | 121
concentration: 13.7 (µM), S9 metabolic activation: with S9, exposure time: 3-4 hours | 0.2 | 1.5 | 173
concentration: 13.7 (µM), S9 metabolic activation: without S9, exposure time: 24 hours | 0.78 | 1.52 | 119
concentration: 17.2 (µM), S9 metabolic activation: with S9, exposure time: 3-4 hours | 0.36 | 1.56 | 159
concentration: 17.2 (µM), S9 metabolic activation: without S9, exposure time: 24 hours | 0.68 | 2.14 | 92.9
concentration: 21.5 (µM), S9 metabolic activation: with S9, exposure time: 3-4 hours | 0.3 | 1.78 | 160
concentration: 21.5 (µM), S9 metabolic activation: without S9, exposure time: 24 hours | 0.62 | 1.68 | 117
concentration: 26.8 (µM), S9 metabolic activation: with S9, exposure time: 3-4 hours | 0.34 | 1.68 | 151
concentration: 26.8 (µM), S9 metabolic activation: without S9, exposure time: 24 hours | 0.68 | 2.44 | 92.9
concentration: 33.6 (µM), S9 metabolic activation: with S9, exposure time: 3-4 hours | 0.44 | 1.88 | 125
concentration: 33.6 (µM), S9 metabolic activation: without S9, exposure time: 24 hours | 0.76 | 2.72 | 68.7
concentration: 41.9 (µM), S9 metabolic activation: with S9, exposure time: 3-4 hours | 0.18 | 1.04 | 137
concentration: 41.9 (µM), S9 metabolic activation: without S9, exposure time: 24 hours | 0.6 | 3.04 | 72.2
concentration: 52.4 (µM), S9 metabolic activation: with S9, exposure time: 3-4 hours | 0.18 | 1.76 | 111
concentration: 52.4 (µM), S9 metabolic activation: without S9, exposure time: 24 hours | 0.74 | 2.78 | 71.8
concentration: 65.5 (µM), S9 metabolic activation: with S9, exposure time: 3-4 hours | 0.14 | 1.54 | 184
concentration: 65.5 (µM), S9 metabolic activation: without S9, exposure time: 24 hours | 1.16 | 3.88 | 58.3
concentration: 81.9 (µM), S9 metabolic activation: with S9, exposure time: 3-4 hours | 0.28 | 1.48 | 161
concentration: 81.9 (µM), S9 metabolic activation: without S9, exposure time: 24 hours | 1.14 | 3.42 | 80.3
concentration: 102 (µM), S9 metabolic activation: with S9, exposure time: 3-4 hours | 0.52 | 1.64 | 163
concentration: 102 (µM), S9 metabolic activation: without S9, exposure time: 24 hours | 1.36 | 5.38 | 64.7
concentration: 128 (µM), S9 metabolic activation: with S9, exposure time: 3-4 hours | 0.22 | 1.68 | 166
concentration: 128 (µM), S9 metabolic activation: without S9, exposure time: 24 hours | 1.06 | 4.72 | 57.8
concentration: 160 (µM), S9 metabolic activation: with S9, exposure time: 3-4 hours | 0.24 | 1.56 | 141
concentration: 160 (µM), S9 metabolic activation: without S9, exposure time: 24 hours | 1.68 | 5.14 | 56
concentration: 200 (µM), S9 metabolic activation: with S9, exposure time: 3-4 hours | 0.22 | 2 | 151
concentration: 200 (µM), S9 metabolic activation: without S9, exposure time: 24 hours | 1.08 | 5.42 | 56.4
